Results reported in PubChem BioAssay AID624417 (National Center for Advancing Translational Sciences (NCATS), 2012).
About 6,400 (1.6%) of roughly 410,000 compounds were called active. Inconclusive means that the source gave no clear call. Such entries were picked first, then a sample of the others. Calls come from the whole dose curve; as a rule, active = well fitted inhibition curve with a large enough effect; inconclusive = small, poorly fitted or top-dose-only effect; inactive = no such curve, though single readings can be large or run the other way. A potency beside an inconclusive call is a rough fit, not a confirmed value.

These molecules were tested against Glucagon-like peptide 1 receptor (Homo sapiens) (UniProt P43220) (assay: qHTS of GLP-1 Receptor Inverse Agonists (Inhibition Mode)). Conditions: HEK293 GLP-1R CRE-luciferase, luminescence, 24 h, GLP-1R form is constitutively active; activity change, negative = inhibition: at 38.3 µM (top of the series) unless noted.
Chain of UniProt P43220 (P43220 whole entry, looked up): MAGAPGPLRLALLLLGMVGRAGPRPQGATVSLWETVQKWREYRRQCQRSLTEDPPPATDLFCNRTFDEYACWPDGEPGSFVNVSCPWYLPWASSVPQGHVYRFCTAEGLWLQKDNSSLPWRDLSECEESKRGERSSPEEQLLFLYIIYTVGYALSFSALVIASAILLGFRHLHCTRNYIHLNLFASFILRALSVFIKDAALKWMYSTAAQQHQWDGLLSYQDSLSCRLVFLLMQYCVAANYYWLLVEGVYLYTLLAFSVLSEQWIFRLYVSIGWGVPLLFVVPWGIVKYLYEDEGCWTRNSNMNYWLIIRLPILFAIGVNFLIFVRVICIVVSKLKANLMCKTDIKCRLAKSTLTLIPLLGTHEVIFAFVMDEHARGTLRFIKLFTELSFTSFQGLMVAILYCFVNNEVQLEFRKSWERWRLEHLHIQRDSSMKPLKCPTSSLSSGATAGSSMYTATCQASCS
How it was run: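 Using stably transfected HEK293 (constitutively active GLP-1R, cAMP-luciferase reporter), compounds were incubated 24 hr and luciferase measured by luminescence.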
% is set by controls: 0 for no effect and ±100 for the full control effect; potency is the fitted concentration of half-maximal effect; tags give direction and shape of the fitted curve.
Note: nearly all actives have a fitted effect of over 55% in size.

Potency, inconclusive:
Cc1ccc(C)c(S(=O)(=O)N2CCN(C(=O)CSc3ccccc3F)CC2)c1 7.94 µM [inhibitor, partial curve, poor fit], Cc1[nH]n(-c2ccccc2)c(=O)c1/C=N\NC(=O)C1COc2ccccc2O1 (stereo not given) 7.08 µM [inhibitor, partial curve], COCCn1c(=O)[nH]c2cc(C(=O)N3CCN(c4cc(C)ccc4C)CC3)ccc2c1=O 7.94 µM [inhibitor, partial curve, poor fit], COc1ccc(CSc2nc3ccncc3n2CC(=O)Nc2cc(C)cc(C)c2)cc1 20 µM [inhibitor, single point], Cc1ccccc1-n1c(-c2ccc(Cl)cc2)cnc1SCC(=O)NC1CCS(=O)(=O)C1 (stereo not given) 11.2 µM [inhibitor, single point], Cc1cc(Cl)ccc1OCC(=O)NNC(=O)C1CCN(c2ncnc3sc(C)c(C)c23)CC1 22.4 µM [inhibitor, partial curve, poor fit], Cc1ccc(OCC(=O)N/N=C\c2cn(Cc3ccccc3)c3ccccc23)cc1C 2.24 µM [inhibitor, full curve, poor fit], Cc1cccc(N2CCN(C(c3ccccc3)c3nnc(-c4ccccc4F)o3)CC2)c1C (stereo not given) 10 µM [inhibitor, partial curve], O=S(=O)(Oc1ccccc1C(=S)N1CCOCC1)c1ccc(Cl)cc1 3.98 µM [inhibitor, partial curve, poor fit], COc1cc(OC)cc(-c2c(-c3cccs3)c3cc(-c4ccc(OC)nc4)ccc3n2C)c1 1 µM [inhibitor, full curve, poor fit], Fc1ccc(Nc2nc(SCc3ccccc3Cl)nc3ccccc23)cc1 11.2 µM [inhibitor, single point], O=C(CCCCC(=O)Sc1ccccc1)Sc1ccccc1 10 µM [inhibitor, partial curve, poor fit], CCOC(=O)c1ccc(CNC(=O)c2cc(C(C)(C)C)oc2C)o1 10 µM [inhibitor, single point], CCC(C)NC(=O)C1CCCN(c2nc(C)cc(OC)n2)C1 (stereo not given) 28.2 µM [inhibitor, single point], CCc1nn(C(CC)C(=O)NCc2cccc(OC)c2)c(=O)c2cc3occc3n12 (stereo not given) 2.82 µM [inhibitor, partial curve], COCCCC1CCN(C(=O)c2cc(COc3cc(C)ccc3C)on2)CC1 15.8 µM [inhibitor, single point], O[C@@H]1[C@@H](O)C=C2CCN3Cc4cc5c(cc4[C@H]1C23)OCO5 (stereo not given in full) 5.62 µM [inhibitor, partial curve, poor fit], CC(C)(C)NC(=O)CSc1nc2cccnc2n1C1CCCCC1 3.55 µM [inhibitor, partial curve, poor fit], Cc1ccc(SC[C@H](C)CN2CC[C@H](C)CCC2=O)cc1 11.2 µM [inhibitor, partial curve, poor fit], O=C(CSc1nnc(-c2ccccc2)c(-c2ccccc2)n1)NCC1CCCO1 (stereo not given) 10 µM [inhibitor, single point], Cc1ccc2c(C)c(C(=O)N3CCC(O)(c4ccccc4)CC3)oc2c1C 28.2 µM [inhibitor, single point], COc1ccc(/C=C\C(=O)NCC(=O)N/N=C/c2ccc(O)cc2O)cc1 28.2 µM [inhibitor, single point], Fc1ccccc1-c1nc(-c2cnccc2C(F)(F)F)no1 10 µM [inhibitor, single point], COc1ccccc1C(O)P(=O)(OC1CCCCC1)OC1CCCCC1 (stereo not given) 11.2 µM [inhibitor, single point], COc1ccc(OC)c(NC(=O)Cc2csc(NC(=O)Nc3ccccc3OC)n2)c1 10 µM [inhibitor, partial curve, poor fit], c1ccc(CN2CCN(c3nc(N4CCOCC4)c4ccccc4n3)CC2)cc1 28.2 µM [inhibitor, single point], Cn1cnnc1Sc1ccc(C(=O)NCCC23CC4CC(CC(C4)C2)C3)cc1[N+](=O)[O-] 12.6 µM [inhibitor, single point], CCC1=Nc2cc(C(=O)NCCc3ccc(OC)c(OC)c3)ccc2Sc2ccccc21 28.2 µM [inhibitor, single point], CCc1ccc(C(=O)CC2(O)C(=O)N(CCc3ccccc3)c3ccc(Br)cc32)cc1 (stereo not given) 12.6 µM [inhibitor, partial curve, poor fit], CN(C)c1ccc(S(=O)(=O)NCC(=O)NCC2CCCCC2)cc1[N+](=O)[O-] 5.62 µM [inhibitor, partial curve, poor fit], Cc1ccc(CSC2=Nc3ccccc3C3=NC(CCC(=O)NC4CCCCC4)C(=O)N23)cc1 (stereo not given) 6.31 µM [inhibitor, partial curve], CCc1ccccc1S(=O)(=O)Cc1ccc(C(=O)NCc2ccc(Cl)cc2)o1 11.2 µM [inhibitor, partial curve, poor fit], COC(=O)c1ccccc1NC(=O)C1CCC(=O)N1S(=O)(=O)c1ccc(C)cc1 (stereo not given) 28.2 µM [inhibitor, single point], Cc1cc(C(C)(C)C)oc1C(=O)N(CC(=O)NC1CCCC1)c1cccc(C(F)(F)F)c1 5.62 µM [inhibitor, partial curve, poor fit], OC(COCc1ccccc1)CN1CCN(c2ccccc2)CC1 (stereo not given) 10 µM [inhibitor, single point], COc1ccc(CCNC(=O)c2ccc3c(c2)N(Cc2ccc(F)cc2)CCS3)c(OC)c1 8.91 µM [inhibitor, partial curve, poor fit], CN(c1ccccc1)S(=O)(=O)c1cccc(C(=O)NCc2ccccc2CN2CCCC2)c1 12.6 µM [inhibitor, single point], COc1ccc(N(CC(=O)NC2CCCC2)C(=O)c2ccc(N3CCCCC3)nc2)cc1 8.91 µM [inhibitor, single point], COc1ccc(-c2cn(CCc3c[nH]c4ccccc34)nn2)cc1 5.62 µM [inhibitor, full curve, poor fit], Cc1ccc(NC(=O)c2cc(-c3cccc(O)c3)on2)cc1C 28.2 µM [inhibitor, single point], Cn1c(NCC(O)c2ccccc2)nc2c1c(=O)n(Cc1ccc(Cl)cc1)c(=O)n2C (stereo not given) 3.55 µM [inhibitor, partial curve, poor fit], CCCCC(C(=O)NC(C)(C)C)N(Cc1ccccc1)C(=O)c1snc(C(N)=O)c1N (stereo not given) 28.2 µM [inhibitor, single point], Cc1csc(SCC(=O)NCCc2ccc(Cl)cc2Cl)n1 12.6 µM [inhibitor, single point], COc1cc(NC(=O)c2cccc3c(-c4cnn(C)c4)coc23)cc(OC)c1OC 7.94 µM [inhibitor, partial curve], O=C1N(c2ccccc2C(F)(F)F)O[C@]1(c1ccccc1)C1CCCCC1 10 µM [inhibitor, partial curve, poor fit], CN(CC(O)COC(c1ccccc1)c1ccccc1)C1CCCCC1 (stereo not given) 3.16 µM [inhibitor, partial curve, poor fit], Cc1ccc(Sc2ncnc3onc(C)c23)cc1 28.2 µM [inhibitor, single point], O=C(CSc1nc2ccccc2nc1N1CCOCC1)N1CCN(c2ccccc2)CC1 10 µM [inhibitor, partial curve, poor fit]

Potency, active:
COc1cccc(/C=C2\SC(=S)N(CCCC(=O)N(CCO)c3ccccc3)C2=O)c1 4.47 µM, Cn1nc(C(F)(F)F)c(-c2ccc(Br)cc2)c1NC(=O)c1ccco1 7.08 µM

Potency, inactive:
CCc1nc2ccccc2n2c(-c3ccc(C)cc3)c3c(=O)n(C)c(=O)n(C)c3c12, Cn1c(=O)[nH]c(=O)c2c1nc(N1CCCCC1)n2CCSc1nc2ccccc2o1, COc1ccc(-n2nc3ccc(NC(=O)c4c(OC)cccc4OC)cc3n2)cc1, Cn1nc(C(F)(F)F)c(C(=O)Nc2ccc(F)cc2F)c1Sc1cccc(C(F)(F)F)c1, COc1ccccc1-n1nnnc1SCC(=O)Nc1ccccn1, COCc1cc(C)nc(OCC(=O)N/N=C/c2ccco2)c1C#N, CCc1ccc(NCc2cc3ccc(OC)cc3n(CC(=O)Nc3ccccc3C)c2=O)cc1, COc1ccc(CNC(=O)Cn2c(=O)nc(-c3ccccc3)c3cc(Cl)ccc32)cc1OC

Activity change, negative = inhibition, inconclusive:
COc1cc(OC)cc(C(=O)N/N=C2/SCC(=O)N2Cc2ccco2)c1 -30.1% [inhibitor] [at 7.66 µM], CC(C)(C)C(=O)N1CCN(C(c2ccccc2)c2ccccc2)CC1 -88.6% [inhibitor]
